Measured values reported in IntAct's records for PubMed 20859254.

B1: Melatonin receptor type 1A (Homo sapiens), P48039 (parent)
chain: MQGNGSALPNASQPVLRGDGARPSWLASALACVLIFTIVVDILGNLLVILSVYRNKKLRNAGNIFVVSLAVADLVVAIYPYPLVLMSIFNNGWNLGYLHCQVSGFLMGLSVIGSIFNITGIAINRYCYICHSLKYDKLYSSKNSLCYVLLIWLLTLAAVLPNLRAGTLQYDPRIYSCTFAQSVSSAYTIAVVVFHFLVPMIIVIFCYLRIWILVLQVRQRVKPDRKPKLKPQDFRNFVTMFVVFVLFAICWAPLNFIGLAVASDPASMVPRIPEWLFVASYYMAYFNSCLNAIIYGLLNQNFRKEYRRIIVSLCTARVFFVDSSNDVADRVKWKPSPLMTNNNVVKVDSV
partner: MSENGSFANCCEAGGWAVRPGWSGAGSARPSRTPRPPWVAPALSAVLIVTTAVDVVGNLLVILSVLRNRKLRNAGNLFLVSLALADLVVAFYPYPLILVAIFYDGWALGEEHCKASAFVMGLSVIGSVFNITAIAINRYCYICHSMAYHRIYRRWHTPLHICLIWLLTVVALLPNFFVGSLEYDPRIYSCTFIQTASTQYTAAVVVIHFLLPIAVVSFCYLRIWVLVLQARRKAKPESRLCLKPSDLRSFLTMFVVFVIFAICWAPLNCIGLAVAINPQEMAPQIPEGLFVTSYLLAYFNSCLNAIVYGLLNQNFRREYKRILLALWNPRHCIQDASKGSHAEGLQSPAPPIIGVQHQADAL

Variants of: B1
Settings: with mtr1b_human MTNR1B

Variant	effect of a mutation on the interaction
MQGNGSALPNASQPVLRGDGARPSWLASALACVLIFTIVVDILGNLLVILSVYRNKKLRNAGNIFVVSLAVADLVVAIYPYPLVLMSIFNNGWNLGYLHCQVSGFLMGLSVIGSIFNITGIAINRYCYICHSLKYDKLYSSKNSLCYVLLIWLLTLAAVLPNLRAGTLQYDPRIYSCTFAQSVSSAYTIAVVVFHFLVPMIIVIFCYLRIWILVLQVRQRVKPDRKPKLKPQDFRNFVTMFVVFVLFAICWCPLNFIGLAVASDPASMVPRIPEWLFVASYYMAYFNSCLNAIIYGLLNQNFRKEYRRIIVSLCTARVFFVDSSNDVADRVKWKPSPLMTNNNVVKVDSV [A252C]	increasing interaction
MQGNGSALPNASQPVLRGDGARPSWLASALACVLIFTIVVDILGNLLVILSVYRNKKLRNAGNIFVVSLAVADLVVAIYPYPLVLMSIFNNGWNLGYLHCQVSGFLMGLSVIGSIFNITGIAINRYCYICHSLKYDKLYSSKNSLCYVLLIWLLTLAAVLPNLRAGTLQYDPRIYSCTFAQSVSSAYTIAVVVFHFLVPMIIVIFCYLRIWILVLQVRQRVKPDRKPKLKPQDFRNFVTMFVVFVLFAICWAPLNFITLAVASDPASMVPRIPEWLFVASYYMAYFNSCLNAIIYGLLNQNFRKEYRRIIVSLCTARVFFVDSSNDVADRVKWKPSPLMTNNNVVKVDSV [G258T]	increasing interaction
